# This is one part of the list.
# B1: PhoQ; a variant is named by its letters at X, in order, P23837 (parent)
# chain: MKKLLRLFFPLSLRVRFLLATAAVVLVLSLAYGMVALIGYSVSFDKTTFRLLRGESNLFYTLAKWENNKLHVELPENIDKQSPTMTLIYDENGQLLWAQRDVPWLMKMIQPDWLKSNGFHEIEADVNDTSLLLSGDHSIQQQLQEVREDDDDAEMTHSVAVNVYPATSRMPKLTIVVVDTIPVELKSSYMVWSWFIYVLSANLLLVIPLLWVAAWWSLRPIEALAKEVRELEEHNRELLNPATTRELTSLVRNLNRLLKSERERYDKYRTTLTDLTHSLKTPLXXLQXXLRSLRSEKMSVSDAEPVMLEQISRISQQIGYYLHRASMRGGTLLSRELHPVAPLLDNLTSALNKVYQRKGVNISLDISPEISFVGEQNDFVEVMGNVLDNACKYCLEFVEISARQTDEHLYIVVEDDGPGIPLSKREVIFDRGQRVDTLRPGQGVGLAVAREITEQYEGKIVAGESMLGGARMEVIFGRQHSAPKDE
# Variants of: B1
# Test: enrichment ratio after two sorts for PhoP signalling (ratio (wild type AVST 3.29)); higher = more functional
# Conditions: with PhoP (E. coli)
row,Variant,enrichment ratio
1,SDCP,≤ 0.25
2,AAHP,≤ 0.25
3,DCHG,≤ 0.25
4,SGDT,≤ 0.25
5,LNNW,≤ 0.25
6,SDGI,≤ 0.25
7,QTPP,≤ 0.25
8,QCGD,≤ 0.25
9,HIDP,≤ 0.25
10,DEDV,≤ 0.25
11,AFSV,≤ 0.25
12,FKLK,≤ 0.25
13,HDFH,≤ 0.25
14,DYMH,≤ 0.25
15,MIVG,≤ 0.25
16,PRSD,≤ 0.25
17,WPDI,≤ 0.25
18,NGHR,≤ 0.25
19,QAPM,≤ 0.25
20,QAMS,≤ 0.25
21,EFWR,≤ 0.25
22,HNAG,≤ 0.25
23,AYGK,≤ 0.25
24,MCRF,≤ 0.25

row,Variant,enrichment ratio
1,PGVL,≤ 0.25
2,NMFC,≤ 0.25
3,EYSE,≤ 0.25
4,YAPA,≤ 0.25
5,RNFL,≤ 0.25
6,GRVT,≤ 0.25
7,SCPD,≤ 0.25
8,NNIQ,≤ 0.25
9,CCLT,≤ 0.25
10,HFGN,≤ 0.25
11,QDRL,≤ 0.25
12,GFKV,≤ 0.25
13,KIGA,≤ 0.25
14,GWAE,≤ 0.25
15,VMQY,≤ 0.25
16,HCYS,≤ 0.25
17,QLHY,≤ 0.25
18,GPDY,≤ 0.25
19,SYHD,≤ 0.25
20,SATS,14.2
21,RVDV,≤ 0.25
22,GYGA,≤ 0.25
23,EADG,≤ 0.25
24,NIAY,≤ 0.25

row,Variant,enrichment ratio
1,VHAV,≤ 0.25
2,TPTC,≤ 0.25
3,WQDP,≤ 0.25
4,PDNV,≤ 0.25
5,GSWH,≤ 0.25
6,HTKI,≤ 0.25
7,KEAF,≤ 0.25
8,LHWG,≤ 0.25
9,RERM,≤ 0.25
10,WMQY,≤ 0.25
11,HQEY,≤ 0.25
12,LYGT,≤ 0.25
13,FAFG,≤ 0.25
14,WYLY,≤ 0.25
15,EGGV,≤ 0.25
16,HFLF,≤ 0.25
17,QCNE,≤ 0.25
18,MHNK,≤ 0.25
19,GVWL,≤ 0.25
20,FSNT,≤ 0.25
21,RRKL,≤ 0.25
22,RIFN,≤ 0.25
23,RTAW,≤ 0.25
24,YELG,4.61

row,Variant,enrichment ratio
1,DMCY,≤ 0.25
2,KRSQ,≤ 0.25
3,PPKD,≤ 0.25
4,ASLD,2.9
5,ICGD,≤ 0.25
6,NCTG,≤ 0.25
7,KICD,≤ 0.25
8,PKQM,≤ 0.25
9,NLKK,≤ 0.25
10,GARV,≤ 0.25
11,HYRV,≤ 0.25
12,SHFP,0.324
13,SKQG,≤ 0.25
14,VGRW,≤ 0.25
15,YYMW,≤ 0.25
16,AYSD,≤ 0.25
17,HPMI,≤ 0.25
18,LDME,≤ 0.25
19,IMIA,≤ 0.25
20,SRFM,≤ 0.25
21,YSNH,≤ 0.25
22,PQYM,≤ 0.25
23,MINP,≤ 0.25
24,MRMY,≤ 0.25

row,Variant,enrichment ratio
1,NEQR,≤ 0.25
2,RMEL,≤ 0.25
3,VDQQ,≤ 0.25
4,IKDP,≤ 0.25
5,AIRK,≤ 0.25
6,QTYN,1.99
7,RIVP,≤ 0.25
8,KHSV,≤ 0.25
9,IDDR,≤ 0.25
10,QSDD,≤ 0.25
11,MDDY,≤ 0.25
12,LMFW,≤ 0.25
13,MDIV,6.39
14,ATAI,≤ 0.25
15,EQQF,≤ 0.25
16,HESA,≤ 0.25
17,PMSG,≤ 0.25
18,AMRQ,≤ 0.25
19,MNPT,≤ 0.25
20,RLLW,≤ 0.25
21,NRDH,≤ 0.25
22,FAMY,≤ 0.25
23,RWIM,≤ 0.25
24,TMWM,≤ 0.25

row,Variant,enrichment ratio
1,WLGM,≤ 0.25
2,KHNA,≤ 0.25
3,STSE,8.39
4,NDSS,≤ 0.25
5,TCVS,0.384
6,WCMF,≤ 0.25
7,DKDC,≤ 0.25
8,AEYQ,≤ 0.25
9,VFYV,≤ 0.25
10,LFWW,≤ 0.25
11,RINF,≤ 0.25
12,WGLA,≤ 0.25
13,EDSM,≤ 0.25
14,RQYE,≤ 0.25
15,YFYV,≤ 0.25
16,GNDM,≤ 0.25
17,TVFM,≤ 0.25
18,YERW,≤ 0.25
19,MTAK,≤ 0.25
20,DQVR,≤ 0.25
21,AIQF,≤ 0.25
22,EHML,≤ 0.25
23,DKNI,≤ 0.25
24,HPYD,≤ 0.25

row,Variant,enrichment ratio
1,AYTF,≤ 0.25
2,LKSQ,≤ 0.25
3,PHWK,≤ 0.25
4,GAHC,≤ 0.25
5,YATP,≤ 0.25
6,LAVA,≤ 0.25
7,LNII,≤ 0.25
8,SIQC,3.12
9,TDDA,≤ 0.25
10,TKCQ,11.7
11,GTLQ,15.2
12,EVPH,≤ 0.25
13,TDFP,≤ 0.25
14,IGPQ,≤ 0.25
15,YTWQ,≤ 0.25
16,YGQM,≤ 0.25
17,FRGH,≤ 0.25
18,WNTN,≤ 0.25
19,ISMT,≤ 0.25
20,YFDI,≤ 0.25
21,FMCN,≤ 0.25
22,AFPA,≤ 0.25
23,ANIP,≤ 0.25
24,HWQH,≤ 0.25

row,Variant,enrichment ratio
1,WGLW,≤ 0.25
2,SCCP,≤ 0.25
3,SKRQ,≤ 0.25
4,TENA,9.68
5,ASIC,12.1
6,KVWI,≤ 0.25
7,WQRL,≤ 0.25
8,ELWN,≤ 0.25
9,NQEF,≤ 0.25
10,LRWD,≤ 0.25
11,VMSC,≤ 0.25
12,GAYG,≤ 0.25
13,VIWP,0.312
14,SQSC,11.7
15,IWQK,≤ 0.25
16,NGIM,≤ 0.25
17,TDTE,≤ 0.25
18,DDDM,≤ 0.25
19,GRLD,≤ 0.25
20,SGWC,≤ 0.25
21,PPWS,≤ 0.25
22,SEYH,1.88
23,KITC,≤ 0.25
24,LKHY,≤ 0.25

row,Variant,enrichment ratio
1,CSRV,≤ 0.25
2,PTKF,≤ 0.25
3,IMTW,≤ 0.25
4,HWAT,≤ 0.25
5,PLND,≤ 0.25
6,PCNN,≤ 0.25
7,SRIF,≤ 0.25
8,EHVG,≤ 0.25
9,WRYN,≤ 0.25
10,PLYT,≤ 0.25
11,SMAG,11.3
12,NYGQ,≤ 0.25
13,TIKI,≤ 0.25
14,KDVR,≤ 0.25
15,KRMG,≤ 0.25
16,TSLR,1.77
17,RCAM,≤ 0.25
18,QQEF,≤ 0.25
19,VYHP,≤ 0.25
20,IFPR,≤ 0.25
21,QDVG,≤ 0.25
22,TWKM,≤ 0.25
23,FRNH,≤ 0.25
24,VTIC,≤ 0.25

row,Variant,enrichment ratio
1,PIVF,≤ 0.25
2,NCDT,≤ 0.25
3,HTFM,≤ 0.25
4,FTVQ,≤ 0.25
5,RFLP,≤ 0.25
6,MSYT,9.58
7,YNSK,≤ 0.25
8,WPDS,≤ 0.25
9,QVMS,≤ 0.25
10,YVRK,≤ 0.25
11,DKPH,≤ 0.25
12,VFAK,≤ 0.25
13,AVGD,≤ 0.25
14,YKCH,≤ 0.25
15,AEIM,15.7
16,KYQA,≤ 0.25
17,SRMF,≤ 0.25
18,NCSI,≤ 0.25
19,IWMF,≤ 0.25
20,FDLG,≤ 0.25
21,NQSG,≤ 0.25
22,YNTD,≤ 0.25
23,WNAE,≤ 0.25
24,LAGN,≤ 0.25

row,Variant,enrichment ratio
1,WEYD,≤ 0.25
2,GFRC,≤ 0.25
3,HHYT,≤ 0.25
4,FSDK,≤ 0.25
5,AIMC,≤ 0.25
6,VTQM,≤ 0.25
7,LNFG,≤ 0.25
8,FSYC,≤ 0.25
9,KYWW,≤ 0.25
10,KAEP,≤ 0.25
11,CLIL,≤ 0.25
12,YEHI,≤ 0.25
13,DHFR,≤ 0.25
14,PNSH,≤ 0.25
15,WNIF,≤ 0.25
16,RKYC,≤ 0.25
17,SHGA,≤ 0.25
18,NMVC,≤ 0.25
19,FDIE,≤ 0.25
20,FENH,≤ 0.25
21,CFKV,≤ 0.25
22,GSVW,≤ 0.25
23,ESCN,≤ 0.25
24,RHLA,≤ 0.25

row,Variant,enrichment ratio
1,EQCN,≤ 0.25
2,SKKC,≤ 0.25
3,LAPR,≤ 0.25
4,WKWM,≤ 0.25
5,RRIV,≤ 0.25
6,MYQS,≤ 0.25
7,KAQL,1.07
8,FEQA,≤ 0.25
9,VEQT,≤ 0.25
10,YGKW,≤ 0.25
11,APGF,≤ 0.25
12,PPNQ,≤ 0.25
13,EVRF,≤ 0.25
14,STFN,≤ 0.25
15,QQGP,≤ 0.25
16,HDCR,≤ 0.25
17,LPNG,≤ 0.25
18,KSSY,≤ 0.25
19,EAKM,≤ 0.25
20,SYMT,0.323
21,WLVT,≤ 0.25
22,AHCC,≤ 0.25
23,EETP,≤ 0.25
24,SMDL,≤ 0.25

row,Variant,enrichment ratio
1,PLVR,≤ 0.25
2,KTVR,≤ 0.25
3,LDFL,≤ 0.25
4,VKVQ,≤ 0.25
5,RAQI,≤ 0.25
6,RHTC,≤ 0.25
7,RHCQ,≤ 0.25
8,RFTQ,≤ 0.25
9,WISP,≤ 0.25
10,SWDL,≤ 0.25
11,KPHD,≤ 0.25
12,GRII,≤ 0.25
13,FEAP,≤ 0.25
14,IQMG,≤ 0.25
15,MISL,6.62
16,TGFD,≤ 0.25
17,RRGS,≤ 0.25
18,YIKS,≤ 0.25

# From a collection of fitness landscapes (doi:10.1126/science.1257360)
